Measurements from PubChem BioAssay AID624417 (National Center for Advancing Translational Sciences (NCATS), 2012).
About 6,400 (1.6%) of roughly 410,000 compounds were called active. This list was built around the results that the source calls inconclusive (neither active nor inactive); the mix of calls is not that of the screen. The call rests on the fitted dose curve; in most records, active means well fitted inhibition curve with a large enough effect; inconclusive means small, poorly fitted or top-dose-only effect; inactive means no such curve, though single readings can be large or run the other way. Potencies of inconclusive entries are left out as doubtful fits.

Molecular target: Glucagon-like peptide 1 receptor (Homo sapiens) (UniProt P43220)
Experiment: qHTS of GLP-1 Receptor Inverse Agonists (Inhibition Mode); further: nearly all actives have a fitted effect of over 55% in size
Conditions: HEK293 GLP-1R CRE-luciferase, luminescence, 24 h, GLP-1R form is constitutively active; series mostly up to 38.3 µM
In short: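 Assay principle: reduced luminescence from a cAMP-responsive reporter in HEK293 cells co-expressing a constitutively active GLP-1R. Conditions: 24 hr compound incubation, 37 deg C, 5% CO2.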
Potency means the concentration at half of the fitted maximal effect; tags describe the fitted curve by direction and shape.

Chain of UniProt P43220 (P43220 whole entry, looked up): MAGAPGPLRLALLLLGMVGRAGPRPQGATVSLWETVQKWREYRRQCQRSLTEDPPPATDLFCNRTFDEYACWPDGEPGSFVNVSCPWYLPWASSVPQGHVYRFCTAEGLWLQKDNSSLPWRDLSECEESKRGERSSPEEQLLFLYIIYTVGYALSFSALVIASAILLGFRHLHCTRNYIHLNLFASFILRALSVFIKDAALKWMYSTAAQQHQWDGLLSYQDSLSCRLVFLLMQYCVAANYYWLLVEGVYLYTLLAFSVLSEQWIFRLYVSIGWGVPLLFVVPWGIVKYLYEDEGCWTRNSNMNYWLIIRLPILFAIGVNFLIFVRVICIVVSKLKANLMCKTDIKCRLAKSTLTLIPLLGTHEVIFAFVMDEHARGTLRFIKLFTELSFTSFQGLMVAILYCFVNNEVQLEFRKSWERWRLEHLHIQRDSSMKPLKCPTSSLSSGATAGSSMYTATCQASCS

Row | Structure (SMILES) | Potency
1 | CC(Nc1nc(=S)nc(Nc2ccc(F)cc2)[nH]1)c1ccccc1 (configuration not stated) | inconclusive [inhibitor, partial curve]
2 | Cc1c(-c2ccccc2)n[nH]c1C(=O)N=Nc1c(O)[nH]c2ccccc12 | inconclusive [inhibitor, full curve]
3 | O=C(COc1ccc(Cl)c(Cl)c1)NN1C(=O)C2C(C1=O)C1C=CC2C12CC2 (configuration not stated) | inconclusive [inhibitor, single point]
4 | CCN1C(=O)[C@@H]2[C@@H](c3ccc(-c4ccc(OC)cc4)cc3)N3CCCC[C@@]3(C(=O)OC)[C@@H]2C1=O | inconclusive [inhibitor, partial curve, poor fit]
5 | O=C(COc1ccc(Cl)cc1Br)N1CCN(c2ccccc2)CC1 | inconclusive [inhibitor, full curve, poor fit]
6 | COc1ccc(NC(=O)C2C3C=CC4(O3)C2C(=O)N(CCN2CCCCC2)C4C(=O)NC2CCCC(C)C2C)cc1 (configuration not stated) | inconclusive [inhibitor, full curve, poor fit]
7 | CCCc1ccc(Oc2cc(C)nc(N3CCOCC3)n2)cc1 | inconclusive [inhibitor, single point]
8 | Cc1cc(C(=O)OCc2nnc(-c3ccccc3)o2)c(C)n1-c1ccccc1 | inconclusive [inhibitor, partial curve, poor fit]
9 | Cc1c(Cc2ccccc2)sc(NC(=O)Cc2ccccc2)c1C(N)=O | inactive
10 | O=C(Nc1nnc(SCc2ccc(F)cc2)s1)C1Cc2ccccc2CN1C(=O)c1ccco1 (configuration not stated) | inconclusive [inhibitor, single point]
11 | Cc1ccc(-c2onc(C)c2C)cc1S(=O)(=O)NCc1ccco1 | inconclusive [inhibitor, partial curve, poor fit]
12 | Cc1cc(O)c(NC(=S)NC(=O)c2ccc(-c3ccc(Cl)cc3)o2)cc1C | inconclusive [inhibitor, partial curve, poor fit]
13 | Cc1noc(C)c1CSc1ccccc1C(=O)O | inactive
14 | CCOC1(OCC)OC(c2ccccc2)=C(C#N)C(C=Cc2ccccc2)C1(OCC)OCC (configuration not stated) | inconclusive [inhibitor, full curve, poor fit]
15 | CCN(CC)S(=O)(=O)c1ccc(N/N=C/c2cccnc2)nc1 | inactive
16 | COC(=O)c1ccc(CC2(C)C(=O)Nc3ccc(-c4cccc(C(F)(F)F)c4)cc32)o1 (configuration not stated) | inconclusive [inhibitor, partial curve, poor fit]
17 | c1ccc(CSc2nnc(NC3CCCCC3)s2)cc1 | inconclusive [inhibitor, single point]
18 | CSCCC(NS(=O)(=O)c1ccc2c(c1)oc(=O)n2C)C(=O)NCCc1ccc(C)cc1 (configuration not stated) | inactive
19 | CCc1ccc(-c2nc(CN3CCC(C(=O)NCc4ccc(F)cc4)CC3)c(C)o2)cc1 | inactive
20 | CC1=CC(C)(C)Nc2ccc(OC(=O)CN3C(=O)c4cccc5cccc(c45)C3=O)cc21 | inactive
21 | CCOC(=O)C1CCCN(C(=O)c2cc3cc(F)ccc3[nH]2)C1 (configuration not stated) | inconclusive [inhibitor, partial curve, poor fit]

Row | Structure (SMILES) | Potency
22 | O=C(Oc1cccc2cccnc12)c1cccc(N2C(=O)C3C4CCC(C4)C3C2=O)c1 (configuration not stated) | active: 2.82 µM
23 | COc1ccc(NCC(=O)Nc2ccc(Br)cc2F)c(OC)c1 | inconclusive [inhibitor, partial curve]
24 | COc1ccc(NC(=O)C2Cc3c(-c4ccc(Cl)cc4)ccnc3O2)cn1 (configuration not stated) | inconclusive [inhibitor, partial curve]
25 | Cc1oc(-c2ccccc2F)nc1CS(=O)(=O)CC(=O)NCCCN1CCc2ccccc2C1 | inconclusive [inhibitor, partial curve, poor fit]
26 | CCOC(=O)C1CCN(Cc2cccc(Oc3ccc(Cl)cc3)c2)CC1 | inconclusive [inhibitor, partial curve, poor fit]
27 | O=C(NC1CCCCC1)C(c1cccnc1)N(C(=O)CCl)c1cccc(Cl)c1 (configuration not stated) | inconclusive [inhibitor, full curve, poor fit]
28 | CC12CC3CC(C)(C1)CC(C(=O)Nc1nncs1)(C3)C2 | inconclusive [inhibitor, single point]
29 | CN(C1CCCCC1)S(=O)(=O)c1ccc2c(c1)c(=O)c(C(=O)NCCc1ccc(Cl)cc1)cn2C | inactive
30 | O=C(CCN1C(=O)/C(=C/c2ccccc2Cl)SC1=S)Nc1ccccc1C(=O)O | inactive
31 | Cc1ccc(S(=O)(=O)N2CCN(C(=O)COC(=O)CCOc3cc(C)ccc3C)CC2)cc1 | inconclusive [inhibitor, full curve, poor fit]
32 | O=S(=O)(Nc1nc2ccccc2nc1Nc1cccc(S(=O)(=O)N2CCCCC2)c1)c1ccccc1 | active: 11.2 µM
33 | COc1ccc(NC(=O)Nc2cccs2)cc1Cl | inconclusive [inhibitor, single point]
34 | COc1ccc(-c2coc3c(C(=O)NC(C)C)cccc23)c(C)c1 | inconclusive [inhibitor, single point]
35 | CCCCOc1ccccc1Cn1c(=O)oc2ccc(C)cc21 | inconclusive [inhibitor, partial curve, poor fit]
36 | Cc1cc(C(=O)NNC(=O)CN2C(=O)NC(C)(c3ccccc3)C2=O)c(C)o1 (configuration not stated) | inactive
37 | O=C(CN1C(=O)NC(Cc2c[nH]c3ccccc23)C1=O)Nc1cccc(S(=O)(=O)N2CCCCCC2)c1 (configuration not stated) | inconclusive [inhibitor, full curve, poor fit]
38 | Cc1cccc(/N=C2/NC(=O)C(Cc3ccccc3)S2)n1 (configuration not stated) | inactive
39 | O=C(OCc1ccc(-c2ccccc2)cc1)c1cccc(O)c1 | inconclusive [inhibitor, single point]
40 | COc1cccc(CN(Cc2ccco2)c2cnc(S(C)(=O)=O)nc2C(=O)Nc2cccc(Cl)c2C)c1 | inactive
41 | Cc1cc(C)c(C(=O)C(C)OC(=O)C2=COCCO2)cc1C (configuration not stated) | inconclusive [inhibitor, single point]
42 | CN1C(=O)C(CC(=O)NCCc2ccccc2)N(NC(=O)c2ccc(Cl)cc2)C1=S (configuration not stated) | inconclusive [inhibitor, single point]

Row | Structure (SMILES) | Potency
43 | O=C(Nc1ccc(S(=O)(=O)N2CCCCC2)cc1)C1CCN(C(=O)c2ccco2)CC1 | inconclusive [inhibitor, full curve, poor fit]
44 | COc1ccc(/C=N/NC(=S)N[C@H]2CC3CCC2C3)cc1 (some centres not stated) | inconclusive [inhibitor, single point]
45 | O=C(NNC(=O)c1ccccc1OCc1ccccc1)c1ccccc1O | inconclusive [inhibitor, full curve, poor fit]
46 | Nc1nonc1-c1noc(N2CCOCC2)n1 | inactive
47 | O=C1NC(=O)C(Cc2ccc(Cl)cc2)(c2ccccc2)N1 (configuration not stated) | inconclusive [inhibitor, single point]
48 | C[C@@H]1CN([C@@H](C)CO)C(=O)c2cc(NC(=O)C3CC3)ccc2O[C@@H]1CN(C)Cc1ccc(Cl)c(Cl)c1 | active: 11.2 µM
49 | CN=c1sc2ccccc2n1CC(O)COc1ccccc1 (configuration not stated) | inconclusive [inhibitor, single point]
50 | Fc1cccc(Cl)c1COc1ccc(-c2nnco2)cc1 | inconclusive [inhibitor, partial curve, poor fit]
51 | COc1ccc(N2CCN(C(=O)Cn3nnc(-c4ccccc4N)n3)CC2)cc1 | inconclusive [inhibitor, partial curve, poor fit]
52 | C/C(=N\NC(=O)c1ccc(F)cc1)c1ccccn1 | active: 1.12 µM
53 | COc1cc(NC(=O)CN2CCN(c3ccccc3F)CC2)cc(OC)c1 | inconclusive [inhibitor, partial curve, poor fit]
54 | CCC(OC(=O)c1cc2sccc2n1C)C(=O)NCc1ccco1 (configuration not stated) | inconclusive [inhibitor, single point]
55 | O=C(CSc1nnc(C2COc3ccccc3O2)o1)N1CCCc2ccccc21 (configuration not stated) | inconclusive [inhibitor, partial curve, poor fit]
56 | COc1ccc(C)cc1C1=CC(=O)C[C@H](c2ccc(F)cc2)C1 | inconclusive [inhibitor, single point]
57 | Cc1ccc(S(=O)(=O)N2CCC(C(=O)NCCC3=CCCCC3)CC2)cc1C | inconclusive [inhibitor, partial curve]
58 | CC(C)c1nc2sc3c(NCc4ccco4)ncnc3c2c2c1COC(C)(C)C2 | inconclusive [inhibitor, partial curve, poor fit]
59 | COc1ccc(NS(=O)(=O)c2cccc(C(=O)N3CCN(C/C=C/c4ccccc4)CC3)c2)cc1 | inconclusive [inhibitor, partial curve, poor fit]
60 | C/C(N)=C(/C#N)C(=O)COC(=O)c1cc(C)n(-c2ccc(F)cc2)c1C | inconclusive [inhibitor, single point]
61 | CCc1ccc2nc(N(CCCN(C)C)C(=O)c3ccc(S(=O)(=O)N4CCCC4)cc3)sc2c1 | inconclusive [inhibitor, partial curve, poor fit]
62 | C[C@@H]1CCCCO[C@H](CN(C)C(=O)Nc2ccc(F)cc2)[C@@H](C)CN([C@H](C)CO)C(=O)c2cc(NC(=O)c3ccccc3)ccc2O1 | inconclusive [inhibitor, single point]
